B1: TNFα dAb Fc variant Q3A (Fc fusion, name in Kabat numbering)
chain: DIAMTQSPSSLSASVGDRVTITCRASQAIDSYLHWYQQKPGKAPKLLIYSASNLETGVPSRFSGSGSGTDFTLTISSLLPEDFATYYCQQVVWRPFTFGQGTKVEIKRV[human IgG1 Fc with changes left out]
B2: TNFα dAb Fc variant S7A (Fc fusion, name in Kabat numbering)
chain: DIQMTQAPSSLSASVGDRVTITCRASQAIDSYLHWYQQKPGKAPKLLIYSASNLETGVPSRFSGSGSGTDFTLTISSLLPEDFATYYCQQVVWRPFTFGQGTKVEIKRV[human IgG1 Fc with changes left out]
B3: TNFα dAb Fc variant Q3Y (Fc fusion, name in Kabat numbering)
chain: DIYMTQSPSSLSASVGDRVTITCRASQAIDSYLHWYQQKPGKAPKLLIYSASNLETGVPSRFSGSGSGTDFTLTISSLLPEDFATYYCQQVVWRPFTFGQGTKVEIKRV[human IgG1 Fc with changes left out]
B4: TNFα dAb Fc variant S7Q (Fc fusion, name in Kabat numbering)
chain: DIQMTQQPSSLSASVGDRVTITCRASQAIDSYLHWYQQKPGKAPKLLIYSASNLETGVPSRFSGSGSGTDFTLTISSLLPEDFATYYCQQVVWRPFTFGQGTKVEIKRV[human IgG1 Fc with changes left out]
B5: TNFα dAb Fc variant S7H (Fc fusion, name in Kabat numbering)
chain: DIQMTQHPSSLSASVGDRVTITCRASQAIDSYLHWYQQKPGKAPKLLIYSASNLETGVPSRFSGSGSGTDFTLTISSLLPEDFATYYCQQVVWRPFTFGQGTKVEIKRV[human IgG1 Fc with changes left out]
B6: TNFα dAb Fc variant Q3H (Fc fusion, name in Kabat numbering)
chain: DIHMTQSPSSLSASVGDRVTITCRASQAIDSYLHWYQQKPGKAPKLLIYSASNLETGVPSRFSGSGSGTDFTLTISSLLPEDFATYYCQQVVWRPFTFGQGTKVEIKRV[human IgG1 Fc with changes left out]
B7: TNFα dAb Fc variant Q3P (Fc fusion, name in Kabat numbering)
chain: DIPMTQSPSSLSASVGDRVTITCRASQAIDSYLHWYQQKPGKAPKLLIYSASNLETGVPSRFSGSGSGTDFTLTISSLLPEDFATYYCQQVVWRPFTFGQGTKVEIKRV[human IgG1 Fc with changes left out]
B8: TNFα dAb Fc variant S9D (Fc fusion, name in Kabat numbering)
chain: DIQMTQSPDSLSASVGDRVTITCRASQAIDSYLHWYQQKPGKAPKLLIYSASNLETGVPSRFSGSGSGTDFTLTISSLLPEDFATYYCQQVVWRPFTFGQGTKVEIKRV[human IgG1 Fc with changes left out]
B9: TNFα dAb Fc variant Q3S (Fc fusion, name in Kabat numbering)
chain: DISMTQSPSSLSASVGDRVTITCRASQAIDSYLHWYQQKPGKAPKLLIYSASNLETGVPSRFSGSGSGTDFTLTISSLLPEDFATYYCQQVVWRPFTFGQGTKVEIKRV[human IgG1 Fc with changes left out]
B10: TNFα dAb Fc variant Q3K (Fc fusion, name in Kabat numbering)
chain: DIKMTQSPSSLSASVGDRVTITCRASQAIDSYLHWYQQKPGKAPKLLIYSASNLETGVPSRFSGSGSGTDFTLTISSLLPEDFATYYCQQVVWRPFTFGQGTKVEIKRV[human IgG1 Fc with changes left out]
B11: TNFα dAb Fc variant S9Q (Fc fusion, name in Kabat numbering)
chain: DIQMTQSPQSLSASVGDRVTITCRASQAIDSYLHWYQQKPGKAPKLLIYSASNLETGVPSRFSGSGSGTDFTLTISSLLPEDFATYYCQQVVWRPFTFGQGTKVEIKRV[human IgG1 Fc with changes left out]
B12: TNFα dAb Fc variant Q6A (Fc fusion, name in Kabat numbering)
chain: DIQMTASPSSLSASVGDRVTITCRASQAIDSYLHWYQQKPGKAPKLLIYSASNLETGVPSRFSGSGSGTDFTLTISSLLPEDFATYYCQQVVWRPFTFGQGTKVEIKRV[human IgG1 Fc with changes left out]
B13: TNFα dAb Fc variant Q3D (Fc fusion, name in Kabat numbering)
chain: DIDMTQSPSSLSASVGDRVTITCRASQAIDSYLHWYQQKPGKAPKLLIYSASNLETGVPSRFSGSGSGTDFTLTISSLLPEDFATYYCQQVVWRPFTFGQGTKVEIKRV[human IgG1 Fc with changes left out]
B14: TNFα dAb Fc variant S7L (Fc fusion, name in Kabat numbering)
chain: DIQMTQLPSSLSASVGDRVTITCRASQAIDSYLHWYQQKPGKAPKLLIYSASNLETGVPSRFSGSGSGTDFTLTISSLLPEDFATYYCQQVVWRPFTFGQGTKVEIKRV[human IgG1 Fc with changes left out]
B15: TNFα dAb Fc variant S7D (Fc fusion, name in Kabat numbering)
chain: DIQMTQDPSSLSASVGDRVTITCRASQAIDSYLHWYQQKPGKAPKLLIYSASNLETGVPSRFSGSGSGTDFTLTISSLLPEDFATYYCQQVVWRPFTFGQGTKVEIKRV[human IgG1 Fc with changes left out]
B16: TNFα dAb Fc variant S9A (Fc fusion, name in Kabat numbering)
chain: DIQMTQSPASLSASVGDRVTITCRASQAIDSYLHWYQQKPGKAPKLLIYSASNLETGVPSRFSGSGSGTDFTLTISSLLPEDFATYYCQQVVWRPFTFGQGTKVEIKRV[human IgG1 Fc with changes left out]
B17: TNFα dAb Fc variant S9L (Fc fusion, name in Kabat numbering)
chain: DIQMTQSPLSLSASVGDRVTITCRASQAIDSYLHWYQQKPGKAPKLLIYSASNLETGVPSRFSGSGSGTDFTLTISSLLPEDFATYYCQQVVWRPFTFGQGTKVEIKRV[human IgG1 Fc with changes left out]
B18: TNFα dAb Fc variant S7K (Fc fusion, name in Kabat numbering)
chain: DIQMTQKPSSLSASVGDRVTITCRASQAIDSYLHWYQQKPGKAPKLLIYSASNLETGVPSRFSGSGSGTDFTLTISSLLPEDFATYYCQQVVWRPFTFGQGTKVEIKRV[human IgG1 Fc with changes left out]
B19: TNFα dAb Fc variant Q3L (Fc fusion, name in Kabat numbering)
chain: DILMTQSPSSLSASVGDRVTITCRASQAIDSYLHWYQQKPGKAPKLLIYSASNLETGVPSRFSGSGSGTDFTLTISSLLPEDFATYYCQQVVWRPFTFGQGTKVEIKRV[human IgG1 Fc with changes left out]
B20: TNFα dAb Fc variant S7Y (Fc fusion, name in Kabat numbering)
chain: DIQMTQYPSSLSASVGDRVTITCRASQAIDSYLHWYQQKPGKAPKLLIYSASNLETGVPSRFSGSGSGTDFTLTISSLLPEDFATYYCQQVVWRPFTFGQGTKVEIKRV[human IgG1 Fc with changes left out]

In the test the target is recombinant human TNFα (human, UniProt P01375 in part). Briefly: cell-based or functional assay.
Sequence of UniProt P01375 (P01375 77-233 limits assumed): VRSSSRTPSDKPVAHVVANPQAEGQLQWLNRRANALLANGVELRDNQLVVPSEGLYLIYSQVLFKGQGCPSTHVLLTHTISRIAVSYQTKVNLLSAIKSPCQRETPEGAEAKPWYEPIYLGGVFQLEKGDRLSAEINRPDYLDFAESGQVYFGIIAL
In the case of B1, the Standardized EC50, L929 neutralization assay (5-point) stood at 2.32 µg/mL.

Turning to B2, the Standardized EC50, L929 neutralization assay (5-point) stood at 0.383 µg/mL.

For B3, the Standardized EC50, L929 neutralization assay (5-point) came out at 0.45 µg/mL.

As for B4, the Standardized EC50, L929 neutralization assay (5-point) is 0.488 µg/mL.

As to B5, the Standardized EC50, L929 neutralization assay (5-point) was found to be 1.09 µg/mL.

For the molecule B6, the Standardized EC50, L929 neutralization assay (5-point) came to 0.795 µg/mL.

Regarding B7, the Standardized EC50, L929 neutralization assay (5-point) stood at 20.5 µg/mL.

B8: the Standardized EC50, L929 neutralization assay (5-point) worked out at 0.88 µg/mL.

For the molecule B9, the Standardized EC50, L929 neutralization assay (5-point) turned out to be 2.58 µg/mL.

With B10, the Standardized EC50, L929 neutralization assay (5-point) was 1.82 µg/mL.

With B11, the Standardized EC50, L929 neutralization assay (5-point) was determined as 1.17 µg/mL.

For the molecule B12, the Standardized EC50, L929 neutralization assay (5-point) was 123 µg/mL.

B13: the Standardized EC50, L929 neutralization assay (5-point) was 0.809 µg/mL.

With B14, the Standardized EC50, L929 neutralization assay (5-point) was determined as 1.64 µg/mL.

For the molecule B15, the Standardized EC50, L929 neutralization assay (5-point) stood at 0.676 µg/mL.

As to B16, the Standardized EC50, L929 neutralization assay (5-point) stood at 0.671 µg/mL.

Consider B17, for which the Standardized EC50, L929 neutralization assay (5-point) turned out to be 0.98 µg/mL.

In the case of B18, the Standardized EC50, L929 neutralization assay (5-point) came to 2.1 µg/mL.

As to B19, the Standardized EC50, L929 neutralization assay (5-point) turned out to be 6.44 µg/mL.

With B20, the Standardized EC50, L929 neutralization assay (5-point) turned out to be 0.928 µg/mL.

Source of the values: patent publication US20110319597A1 (CAPHALON AUSTRALIA, published 2011).
